# Source: paper PMC4336329 (PLoS ONE, 2015)
# Among all 310,000 compounds or so, about 2,200 (0.71%) showed an effect of 50% or more. The effect is printed as a negative number. This is one part of the list.
# Biological target: human ether-à-go-go-related gene (hERG) potassium channel (human, UniProt Q12809)
# Assay: primary screen, population patch clamp on CHO cells stably expressing hERG
# human ether-à-go-go-related gene (hERG) potassium channel, sequence (Q12809 whole entry, looked up): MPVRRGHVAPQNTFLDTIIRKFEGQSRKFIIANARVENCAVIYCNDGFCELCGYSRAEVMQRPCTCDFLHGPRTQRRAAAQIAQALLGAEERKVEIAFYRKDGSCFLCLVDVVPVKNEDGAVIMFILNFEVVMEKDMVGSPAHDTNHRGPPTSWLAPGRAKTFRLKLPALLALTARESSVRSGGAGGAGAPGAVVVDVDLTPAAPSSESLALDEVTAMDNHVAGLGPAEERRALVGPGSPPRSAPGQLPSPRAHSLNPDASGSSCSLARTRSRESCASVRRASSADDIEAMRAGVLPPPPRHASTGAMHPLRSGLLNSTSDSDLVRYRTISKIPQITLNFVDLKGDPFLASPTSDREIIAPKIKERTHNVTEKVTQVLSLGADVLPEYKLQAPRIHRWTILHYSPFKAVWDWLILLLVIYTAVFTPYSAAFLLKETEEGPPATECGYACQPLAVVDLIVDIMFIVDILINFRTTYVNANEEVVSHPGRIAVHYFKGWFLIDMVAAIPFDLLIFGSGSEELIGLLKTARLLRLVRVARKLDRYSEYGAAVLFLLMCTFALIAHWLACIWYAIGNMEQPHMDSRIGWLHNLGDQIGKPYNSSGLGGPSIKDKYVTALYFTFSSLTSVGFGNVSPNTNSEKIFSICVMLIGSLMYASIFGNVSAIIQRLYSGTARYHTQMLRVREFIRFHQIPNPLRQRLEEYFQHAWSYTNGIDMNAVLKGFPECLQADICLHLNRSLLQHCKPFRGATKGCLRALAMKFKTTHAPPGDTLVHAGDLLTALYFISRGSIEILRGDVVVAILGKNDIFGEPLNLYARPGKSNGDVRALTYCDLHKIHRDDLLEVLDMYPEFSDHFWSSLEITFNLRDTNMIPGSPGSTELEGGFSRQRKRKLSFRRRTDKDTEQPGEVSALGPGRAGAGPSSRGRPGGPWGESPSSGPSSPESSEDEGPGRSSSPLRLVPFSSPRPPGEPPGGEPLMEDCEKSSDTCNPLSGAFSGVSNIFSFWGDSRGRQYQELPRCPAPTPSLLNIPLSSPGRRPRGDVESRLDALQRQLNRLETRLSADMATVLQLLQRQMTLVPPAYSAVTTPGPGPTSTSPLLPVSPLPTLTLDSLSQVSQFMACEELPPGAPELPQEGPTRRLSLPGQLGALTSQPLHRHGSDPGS
row,SMILES,"hERG current change (%, negative = inhibition) at 1uM"
1,CC(O)c1cccc(NC(=O)Cc2cccc3ccccc23)c1 (centres unmarked),12.5%
2,Nc1nc(NC(=O)c2cccs2)nn1-c1ccccc1,13.2%
3,C#CCOCCOCCOCCNc1nc(N2CCN(C(=O)[C@H]([C@@H](C)CC)n3cc([C@@H](N)Cc4ccc(O)cc4)nn3)CC2)nc(N2CCN(C(=O)[C@H](Cc3cc4ccccc4[nH]3)n3cc([C@@H](N)CC(C)C)nn3)CC2)n1.Cl,10%
4,COc1cc(/C=N/NC(=O)CNC(=O)c2cccs2)ccc1O,9.62%
5,COc1ccc(C(=O)CN2C(=O)c3ccccc3C2=O)cc1,13%
6,Cc1cc(C)nc(N2N=C(c3ccccc3)CC2=O)n1,4.89%
7,Cc1ccccc1OCCCCc1c(C)n[nH]c1C,6.27%
8,Cc1nn(Cc2ccccc2Cl)c2sc(C(=O)NCc3ccc4c(c3)OCO4)cc12,8.36%
9,CCN(CC(=O)Nc1ccc(Br)c(C)c1)CC(=O)NC(C)C,4.01%
10,O=C(NCCCc1ccncc1)C1CCC(=O)N(Cc2cccc(C(F)(F)F)c2)C1 (centres unmarked),2.3%
11,O=C(NNC(=S)Nc1ccc(Cl)cc1)c1cccs1,4.33%
12,CN1C(=O)Cc2cc(S(=O)(=O)NCc3cccs3)ccc21,11.1%
13,CCN(CC)S(=O)(=O)c1cc(NC(=O)C2CSC3(C)CCC(=O)N23)ccc1C (centres unmarked),-2.52%
14,O=C(/C=C/c1ccc(S(=O)(=O)N2CCOCC2)cc1)NC(=S)NCCCn1ccnc1,12.7%
15,O=C(NCCN1CCCCC1)c1ccc(/C=N/O)nc1,11.1%
16,CC(C)(C)OC(=O)N1CCOCCOCCN(C(=O)OC(C)(C)C)CCOCC1,0.838%
17,CCn1c(C(Cc2ccccc2)NC(=O)COC)nc2ccccc21 (centres unmarked),2.31%
18,S=C1NCN(Cc2ccco2)CN1,14.6%
19,c1ccc(-c2nccc(-c3ccc4c(c3)OCO4)n2)cc1,13.7%
20,Cc1cccc(CCNS(=O)(=O)c2ccc3c(c2)NC(=O)CS3)c1,9.39%
21,Cc1ccc(OCCNC(=O)Cn2cnc3c(=O)n(C)c(=O)n(C)c32)cc1C,14.1%
22,O=C(c1ccc2c(c1)OCO2)C1CCCN(Cc2c(F)cccc2Cl)C1 (centres unmarked),0.9%

row,SMILES,"hERG current change (%, negative = inhibition) at 1uM"
1,COc1nccnc1NS(=O)(=O)c1ccc(NC(=O)c2ccccc2Br)cc1,13.1%
2,Cc1ccc(-n2nc(C)c(NC(=O)CCl)c2C)cc1C,12%
3,COc1ccc(NC(=O)CSc2nnc(NC(=O)CN3CCOCC3)s2)cc1,16.4%
4,CCN1CCN(CC(=O)N2N=CCC2c2ccccc2)CC1 (centres unmarked),10.2%
5,CCc1nnc(NC(=O)[C@@H](NC(=O)c2cccc(S(=O)(=O)N(CC)CC)c2)C(C)C)s1,6.79%
6,Cc1noc2ncc(C(=O)c3cc(F)ccc3O)cc12,7.19%
7,COc1cccc(CNC(=O)CSc2nnc3c(n2)[nH]c2ccc(F)cc23)c1,3.58%
8,COC(=O)C(C(=O)OC)c1ccc(NC(=O)c2cccc(Cl)c2)cc1,9.74%
9,CCOc1ccc(C2C(C#N)=C(N)SC(N)=C2C#N)c(OCC)c1,14.6%
10,CCOCCCNC(=O)/C(C#N)=C/c1ccc(C)o1,3.56%
11,CCN1CCCC1CNC(=O)c1ccc(N2CCCC2=O)cc1 (centres unmarked),-0.17%
12,O=C(COc1ccccc1)Nc1cccc2c1CCCC2,-1.31%
13,O=C(C1CCN(S(=O)(=O)N2CCOCC2)CC1)N1CCN(c2ccccc2)CC1,13.6%
14,C[C@@H]1C=C[C@](Cc2ccccc2)(C(=O)NCCc2c[nH]c3ccccc23)N1C(=O)c1ccccc1,12.9%
15,C=C1CCN([C@@H](CC(C)C)C(=O)Nc2ccc(OC)cc2)S(=O)(=O)c2ccccc21,7.78%
16,Cc1cc(C)cc(NC(=O)CN2CCN(CCN=CC3=C(O)CC(C)(C)CC3=O)CC2)c1,-15.1%
17,O=C(CNC(=O)c1ccccc1Cl)Nc1ccc(Br)cc1C(=O)c1ccccc1,0.944%
18,CCc1nn(CCCN2CCN(c3cccc(Cl)c3)CC2)c(=O)n1CCOc1ccccc1,-15.1%
19,Cc1ccc(C2=NCCn3c2c2ccccc2[n+]3[O-])cc1,0.371%
20,CC(OC(=O)c1ccncc1)C(=O)Nc1cccc([N+](=O)[O-])c1 (centres unmarked),5%
21,CN1C(=O)c2ccc(NC(=O)c3cccc(N4C(=O)CCC4=O)c3)cc2C1=O,9.04%
22,Cc1ccc(C(=O)N/C(=C\c2ccc(-c3ccc(Br)cc3)o2)C(=O)NCCCN(C)C)cc1,-84.2%
